Results taken from the BET-seq Pho4 binding data (Le et al. 2018).
The other results are listed elsewhere or left out. The energies were worked out here from pooled read counts, against the library average; single values are noisy.

What follows are sequences tested against T1, Pho4 (S. cerevisiae) (UniProt P07270) (assay: relative binding free energy (BET-seq); higher = weaker binding). Conditions: reference: library average.
T1 sequence: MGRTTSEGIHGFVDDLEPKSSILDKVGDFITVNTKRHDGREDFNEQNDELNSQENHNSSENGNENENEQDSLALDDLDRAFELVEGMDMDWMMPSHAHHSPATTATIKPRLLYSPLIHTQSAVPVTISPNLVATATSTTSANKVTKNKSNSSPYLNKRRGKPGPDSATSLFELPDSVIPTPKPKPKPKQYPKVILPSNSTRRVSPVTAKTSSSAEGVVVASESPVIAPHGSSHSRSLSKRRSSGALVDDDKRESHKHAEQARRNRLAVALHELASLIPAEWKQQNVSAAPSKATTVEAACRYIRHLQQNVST

Row | Sequence | relative binding free energy [kcal/mol]
1 | GGTATCACGTGTGTGT | 0.26
2 | TTGCACACGTGGGCGG | 0.01
3 | GGAGTCACGTGAGGGG | 0.33
4 | GATGGCACGTGCATGT | -0.12
5 | GTACTCACGTGTTATA | 0.28
6 | TTTCTCACGTGCTTTG | 0.18
7 | TTGGGCACGTGGAGGC | -0.03
8 | TCTTGCACGTGTTGGC | 0.12
9 | TATAGCACGTGGGAAA | 0.05
10 | GTGGGCACGTGCGTAG | -0.17
11 | AATAGCACGTGGATGG | 0
12 | AGTGTCACGTGGGAAT | -0.02
13 | CGCGTCACGTGGATGT | 0.13
14 | AAGGTCACGTGCGGGA | 0.02
15 | GTTGACACGTGTAAGT | 0.21
16 | AGGTCCACGTGGTGCT | 0.05
17 | TTAATCACGTGGTGTT | -0.05
18 | GATGTCACGTGGGCTT | 0.17
19 | TTCGTCACGTGTTCGT | -0.01
20 | TTTTGCACGTGTCCTT | -0.06
21 | TTGTTCACGTGGGTAT | 0.19
22 | GGAGTCACGTGATAGT | 0.17
23 | CGAGGCACGTGTGGGA | -0.08

Row | Sequence | relative binding free energy [kcal/mol]
24 | GATGACACGTGATTTT | 0.11
25 | CGAGTCACGTGGAAGG | 0.21
26 | ATTTTCACGTGCAGTA | 0.18
27 | GGAGTCACGTGTCGGT | 0.12
28 | TTGTACACGTGTCAGT | -0.02
29 | TGAGTCACGTGGAGGT | 0.07
30 | GGCGGCACGTGGGCGC | -0.33
31 | TTGACCACGTGGATGG | 0.04
32 | GTAATCACGTGGAGTA | 0.23
33 | GTGGCCACGTGGGGGT | -0.17
34 | TGTATCACGTGCGGGC | -0.03
35 | AGGGGCACGTGCTCGG | -0.21
36 | CGTTTCACGTGGAGAG | 0.33
37 | GGGAGCACGTGTTAGT | -0.06
38 | GGTAGCACGTGTGAAA | 0.15
39 | TTGCTCACGTGGTTAT | 0.1
40 | GGAGGCACGTGGTGTG | -0.15
41 | ATGAACACGTGGTTGT | -0.11
42 | TCGTACACGTGGGTAG | -0.06
43 | TGTCACACGTGGGGGC | -0.1
44 | AAAGACACGTGATGTT | 0.14
45 | GGTTCCACGTGGTTGT | 0.06
46 | TGAGTCACGTGTATTG | 0.03

Row | Sequence | relative binding free energy [kcal/mol]
47 | TATAACACGTGTTTGA | -0.18
48 | AGTTTCACGTGAGGAT | 0.37
49 | TATTGCACGTGTCGAT | -0.06
50 | CTTGGCACGTGAGGGG | 0.08
51 | GGGGTCACGTGATGCG | 0.23
52 | TCTTGCACGTGGTGGA | 0.06
53 | GTTGGCACGTGTAGTC | 0.09
54 | TGTATCACGTGTTAAA | 0.12
55 | ATTGGCACGTGTGCAG | -0.33
56 | CTGTGCACGTGAGGAT | 0.34
57 | TGGAGCACGTGAGTAA | 0.25
58 | CGCGGCACGTGCGGGT | -0.15
59 | ACTTACACGTGGTTTA | 0.04
60 | GTTGACACGTGTTGGG | 0.09
61 | GGAGTCACGTGGATTT | 0.31
62 | ACGGGCACGTGTGTGA | -0.07
63 | TTGGCCACGTGTTAAG | 0
64 | TGTCGCACGTGGATAT | -0.01
65 | GTAACCACGTGGTTGG | -0.04
66 | AGGGGCACGTGTCGGT | -0.07
67 | GGTACCACGTGTAGGG | -0.26
68 | TTTTTCACGTGTGCAT | 0.3
69 | TTATACACGTGGAATG | -0.02

Row | Sequence | relative binding free energy [kcal/mol]
70 | TTCGTCACGTGGTTTG | 0.14
71 | TAGTCCACGTGGGATT | 0.06
72 | TTAGACACGTGGACAT | 0.25
73 | AGTAGCACGTGGTCGT | -0.12
74 | TTTAGCACGTGTTAAT | -0.05
75 | CGGTACACGTGTTGGT | 0.1
76 | CTGTGCACGTGTGGCT | -0.06
77 | TTCTGCACGTGTTTGT | 0.04
78 | ATAGCCACGTGATGTA | 0.17
79 | AGTGTCACGTGAGGGT | 0.21
80 | TTGGACACGTGTTTGC | 0.03
81 | GGGCTCACGTGTTAGT | 0.33
82 | TGTATCACGTGCCGTG | 0.11
83 | AAGGGCACGTGGCATG | -0.2
84 | TTAAGCACGTGTGGTT | -0.07
85 | ATTGACACGTGGGGTC | -0.07
86 | ATTTACACGTGTTGGC | 0.15
87 | TCAGGCACGTGGGGGG | -0.16
88 | GTATGCACGTGTGTGT | 0.09
89 | GTAGCCACGTGGTTGG | -0.08
90 | GTATTCACGTGTCGAA | 0.27
91 | CAGGACACGTGCAGGG | 0.06
92 | GCTATCACGTGAGGTG | 0.38

Row | Sequence | relative binding free energy [kcal/mol]
93 | ATTTGCACGTGGGGGA | -0.1
94 | GCTTCCACGTGGGTTG | -0.04
95 | TAAATCACGTGATAGG | 0.22
96 | TTCGGCACGTGTGGAT | 0.06
97 | GGGTCCACGTGTGAAT | 0.13
98 | AGCGGCACGTGTAGGG | -0.05
99 | GTTTGCACGTGTCAAA | 0.17
100 | ATCGGCACGTGGTAAT | -0.08
101 | TGAGTCACGTGCATTA | 0.23
102 | AATTGCACGTGGATTT | 0.1
103 | TTGAACACGTGGAGGA | 0.13
104 | TGTGGCACGTGGCGTG | -0.21
105 | AGTTGCACGTGCTGCG | -0.09
106 | TATGTCACGTGAAGCG | 0.24
107 | TGTTTCACGTGGGTGG | 0.21
108 | GATGGCACGTGGGTTG | -0.15
109 | CTGGGCACGTGTGTTC | -0.01
110 | CGTGTCACGTGAAGGA | 0.29
111 | GGGGGCACGTGTTTAT | -0.04
112 | GAGAACACGTGGGGAA | 0.04
113 | CTGGACACGTGATGGG | 0.25
114 | ATGCGCACGTGTGTCT | -0.04
115 | GTTTTCACGTGAGATG | 0.4
